Data from PubChem BioAssay AID1508623 (National Center for Advancing Translational Sciences (NCATS), 2021).
The whole screen tested about 48,000 compounds, of which about 450 (0.94%) were called active. Another 19% or so got no clear call; they are omitted. The call rests on the fitted dose curve; in most records, active means well fitted inhibition curve with a large enough effect; inconclusive means small, poorly fitted or top-dose-only effect; inactive means no such curve, though single readings can be large or run the other way. The list shows a part of the results.

Assay: Primary qHTS for Identification of Small Molecule Inhibitors of Huntingtin Promoter Activity; further: nearly all actives have a fitted effect of over 50% in size
Details: HEK293 HTT promoter firefly luciferase reporter (activity 0% = vehicle and -100% = no light), 24 h; series mostly up to 57.5 µM; activity change, negative = inhibition: at the top concentration
Procedure, shortened: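 Luminescence was read after Dual-Glo reagent and a 10 min room-temperature incubation. Values were normalized to vehicle (0% activity) and zero RLU (-100% activity). Reporter HEK293 cells had been exposed to compounds (up to 57.5 uM final) for 24 h.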

Activity change, negative = inhibition, inactive:
CC1CCN(CC(=O)N2CCCc3c2c(=O)oc2ccc(OCc4ccccc4)cc32)CC1 -19.1%
Cc1c(C(=O)Nc2ccc(Br)cc2F)oc2ccc(S(=O)(=O)N3CCCCC3)cc12 -22.2%
CC1(C(=O)Nc2cccc(C(F)(F)F)c2)Cc2ccccc2C(=O)O1 (centres undefined) -21.8%
Cc1nc(N2CCOCC2)c2c(C(=O)N3CCN(c4cc(Cl)ccc4C)CC3)c(C)oc2n1 4.16%
O=C(CN1C(=O)C2CCCCN2c2ccc(C(=O)N3CCCC3)cc21)NCc1ccc(F)cc1 (centres undefined) -11.6%
CCOc1ccccc1CNc1ncnc2onc(-c3ccc(F)cc3)c12 -17.4%
CCCNC(=O)CN1C(=O)COc2ccc(S(=O)(=O)N3CCCC3)cc21 -13.6%
CCN1CCC(N(Cc2ccc(F)cc2)C(=O)Nc2cc(C)ccc2C)CC1 -10.2%
COc1ccc(-n2cc(C(=O)NCCc3ccc(C)cc3)c3ccccc3c2=O)cc1 -13.6%
COC(=O)c1ccc(C2CC(=O)Nc3c2c(C)nn3-c2nc(C)cc(C)n2)cc1 (centres undefined) -18.3%
O=C(Nc1ccc(S(=O)(=O)Nc2ncccn2)cc1)c1cccc(Cl)c1 -0.368%
CCn1c(SC)nc2c([nH]c3ccccc32)c1=O -13.5%
O=C(Cn1ccc2cc(S(=O)(=O)N3CCCC3)ccc21)NCc1ccc(Cl)cc1 -22.5%
Cc1cc(C)cc(NC(=O)CC(C)n2nc(C)cc2C)c1 (centres undefined) -16%
COc1cc(NC(=O)Cn2c(=O)n(Cc3ccccc3)c(=O)c3oc4ccccc4c32)cc(OC)c1 -17.5%
O=C(Nc1ccc(F)cc1)C1CCN(c2nc3ccccc3nc2C(F)(F)F)CC1 3.44%
COc1ccc(-c2noc(CC(=O)N(C)c3ccccc3F)n2)cc1 -7.72%
COc1ccc(NC(=O)C2=C(C)Nc3nc(SCc4ccc(C)cc4C)nn3C2c2cccc(OC)c2OC)cc1 (centres undefined) -0.145%
Cc1[nH]c(=O)[nH]c(=O)c1S(=O)(=O)Nc1cccc(Cl)c1C -7.97%
CCOc1ccc(CNC(=O)Cn2nc(C)c3nn(-c4ccc(Cl)cc4)c(C)c3c2=O)cc1 8.63%
Cc1oc2ncnc(N3CCCCC3)c2c1C(=O)NCC1CCN(Cc2ccccc2F)CC1 11.2%
COc1ccccc1NC(=O)c1sc2nc(-c3cc4cc(Cl)ccc4oc3=O)[nH]c(=O)c2c1C -3.53%
O=c1[nH]c(=O)n([C@H]2C[C@@H](O)[C@@H](CO)O2)cc1F -22.8%
O=C(NCCN1CCOCC1)c1ccc(Cl)cc1 16.3%
COc1ccc(OC)c(NC(=O)Cn2nc3c(cc2=O)CCCC3)c1 -14.7%
COc1ccc(CCNS(=O)(=O)c2ccc3c(c2)c(=O)n(C)c(=O)n3C)cc1OC -0.0934%
Cc1ccc(NC(=O)c2nc(S(C)(=O)=O)ncc2N(Cc2cccc(F)c2)Cc2ccco2)cc1C -31.7%
Cc1ccc(NC(=O)CCCc2nnc3n(C)c(=O)c4sccc4n23)cc1C -18.3%
Cc1ccc(S(=O)(=O)c2cn(C)c3cc(N4CCOCC4)c(F)cc3c2=O)c(C)c1 -2.6%
Oc1c(C(c2ccc(F)cc2)N2CCCC2)sc2nc(-c3ccco3)nn12 (centres undefined) -8.66%
Cc1ccc(CCNC(=O)C2COc3ccccc3C2)cc1 (centres undefined) -6.39%
O=C(Oc1ccccc1C(=O)O)c1ccccc1O 4.2%
Cc1ccc(Cl)cc1-n1c(=O)c2sc3ccccc3c2n(CC(=O)NC2CCCC2)c1=O -26.2%
Cc1ccc2c(c1)-c1onc(C(=O)N3CCN(c4cc(C)ccc4C)CC3)c1CO2 -9.84%
Cc1cc(C)n(-c2nc3cc(Cl)ccc3nc2N2CCN(c3cccc(C)c3C)CC2)n1 -9.53%
COc1ccccc1CNS(=O)(=O)c1c(C(=O)N2CCC(C)CC2)c(C)n(C)c1C -16.4%
Cc1ccc(CCNC(=O)Cn2ncc3c([nH]c4ccccc43)c2=O)cc1 1.4%
COc1ccc(C)cc1NC(=O)CSc1nc(=O)n(Cc2cccnc2)c2c1CCC2 0%
COC(=O)c1ccccc1NC(=O)CSc1cc(-c2ccccc2)nc(C)n1 -11.8%
O=C(CCn1c(=O)c2cccn2c2ccc(F)cc21)NCCc1ccc(Cl)cc1 2.14%
COc1ccc(NC(=O)N2CCC(CN3CCCC3)CC2)c(OC)c1 -14.5%
Clc1ccc(-c2ccc(CNCCSc3nnnn3-c3ccccc3)o2)cc1 -16%
Clc1ccccc1-c1nc(-c2ccncc2)no1 30.1%
CC(C)(C)OC(=O)N1CCC(c2c(C(=O)NCCN3CCOCC3)cnn2-c2cccc(F)c2)CC1 -24.6%
CCN1CCN(c2oc(-c3ccc(COc4ccc(OC)cc4)o3)nc2C#N)CC1 -25.4%
COc1c(C)c2c(c(O)c1C/C=C(\C)CCC(=O)O)C(=O)OC2 -20.7%
COc1ccc(C2(CNC(=O)C(=O)Nc3ccc(C)c(Cl)c3)CCCC2)cc1OC -8.38%
CCN(CC)S(=O)(=O)c1nnc(NC(=O)COc2ccccc2)s1 -0.156%
COc1ccc(OC)c(C(=O)CN2C(=O)N(c3cc(C)cc(C)c3)S(=O)(=O)c3ccccc32)c1 -20.2%
Cc1ccc(NC(=O)CSc2nnc(C)s2)c(C)c1 -6.53%
NS(=O)(=O)c1cc(Cl)c(Cl)c(S(N)(=O)=O)c1 -7.24%
COc1ccc(NC(=O)C2CCN(c3nc4ccccc4[nH]3)CC2)cc1OC -0.706%
Cc1cc(O)c(C(c2ccc(F)cc2)N2CCN(c3ccccc3)CC2)c(=O)n1Cc1ccco1 (centres undefined) -1.24%
CC(NC(=O)c1cccc(Nc2nc3ccccc3n3nnnc23)c1)c1ccccc1 (centres undefined) 18.8%
CS(=O)(=O)c1ccc(-c2cnc(N)c(C(=O)Nc3ccccc3)n2)cc1 -21.5%
O=C(CSc1nc2c(c(=O)[nH]1)CCC2)Nc1cccc(O)c1 0.546%
COc1ccc(OC)c(NC(=O)Nc2cccc(OCc3cc(=O)n4cc(C)ccc4n3)c2)c1 40.7%
CCn1c(=O)c2sccc2n2c(CCCC(=O)Nc3ccc(C)cc3)nnc12 -12.2%
Cc1ccc(N2CCN(c3ncnc4onc(-c5ccc(F)cc5)c34)CC2)c(C)c1 -5.12%
Cc1ccc(S(=O)(=O)NCCc2nnc3ccc(SCc4cccc(F)c4)nn23)cc1 -14.2%
COc1ccc(-c2nc3ccccc3o2)cc1NC(=O)c1ccc(-c2ccc(C)c(Cl)c2)o1 -3.13%
Cc1ccc(Nc2c(-c3ccco3)nc3ccc(C)cn23)cc1 6.56%
CCN(C(=O)c1cc2c(=O)oc3ccccc3c2s1)c1cccc(C(F)(F)F)c1 -11.8%
O=C(CN1C=NS(=O)(=O)c2ccccc21)Nc1ccc(Br)cc1 -13.8%
Cc1ccccc1CNC(=O)CCCn1ncn2c(cc3occc32)c1=O -10.3%
Cc1cccc(-n2nnc(-c3nc(-c4cccs4)no3)c2N)c1C 104%
COc1ccc(NC(=O)CSC2=Nc3ccccc3C3=NC(Cc4ccccc4)C(=O)N23)cc1 (centres undefined) -24.2%
COCCNC(=O)c1ccc2c(c1)NC(=O)C(CS(=O)(=O)Cc1ccc(F)cc1Cl)N2 (centres undefined) -2.5%
COc1ccc(NC(=O)c2c(NC(=O)c3cccc(C)c3)sc3c2CCC3)cc1 -9.9%
Cc1ccccc1CN1C(=O)c2ccccc2Sc2ccc(C(=O)N3CCOCC3)cc21 -16.4%
COc1ccccc1-c1c(C(F)(F)F)oc2c(CN3CCCCC3C)c(O)ccc2c1=O (centres undefined) -5.9%
Cc1cccc(-c2nc(-c3ccc4c(c3)[nH]c(=O)n4C)no2)c1 11.7%
O=C(Nc1ccc2oc(-c3cccc4c(Br)cccc34)nc2c1)c1ccc(Br)cc1 -17.1%
Cc1cc(F)ccc1NC(=O)CCS(=O)(=O)c1cccc2nsnc12 -3.96%
Cc1cccc(NC(=O)CSc2nc3c(oc4ccccc43)c(=O)n2-c2ccccc2)c1C -10.7%
CCN1CCCC(OC(=O)C(c2ccccc2)c2ccccc2)C1 (centres undefined) -0.662%
COc1cc(-c2cc3n(C)c(C)c(CCC(=O)Nc4ccc(F)cc4)c(=O)n3n2)cc(OC)c1OC 9.35%
COc1ccc(Cn2c(=O)c3oc4ccccc4c3n(Cc3ccccc3)c2=O)cc1 1.2%
CCOC(=O)c1[nH]c(C)c(CCC(=O)NCc2cccc(Cl)c2)c1C -12.9%
Nc1ccc(C(=O)O)cc1 11.5%
COC(=O)c1ccc([C@@H]2Nc3c(cccc3C(F)(F)F)[C@@H]3C=CC[C@@H]32)cc1 -24.3%
Nc1nc2nc(-c3ccc(Cl)cc3)cc(C(F)(F)F)n2n1 6.25%
CC(=O)N1c2ccccc2C(=O)C1N1CCN(c2cccc(C)c2C)CC1 (centres undefined) -15.7%
Cc1ccc(NC(=O)CSc2nc3c(c(=O)[nH]2)CN(Cc2ccccc2)CC3)cc1Cl -26%
Nc1nonc1-c1nc2ccccc2n1Cc1ccc(Br)cc1 -12.7%
CC(C)(Oc1ccc(Cl)cc1)C(=O)Nc1cccc(-c2cn3cccnc3n2)c1 -24.9%
CC1(C)CC(=O)c2cc(C(=O)Nc3ccc(Cl)cc3)c(=O)[nH]c2C1 33.8%
O=C(CC(c1cccs1)N1Cc2ccccc2C1=O)Nc1ccccc1F (centres undefined) -25%
COC(=O)c1cc2occc2n1Cc1ccc(F)cc1Cl -14.4%
Cc1ccc(NC(=O)CN2C(=O)CSc3ccc(S(=O)(=O)N(C)C)cc32)cc1C -23.2%
Cc1ccc(CSC2=Nc3ccccc3C3=NC(CCC(=O)NCCc4ccccc4)C(=O)N23)cc1 (centres undefined) -21.9%
COc1ccc(-c2nc(S(=O)(=O)c3ccc(Cl)cc3)c(N3CCCCCC3)o2)cc1 -3.37%
CCOc1cc(C2C(C(N)=O)=C(C)Nc3ncnn32)cc(Br)c1O (centres undefined) -7.82%
CCc1noc(-c2ccc(N3CCCCC3)c([N+](=O)[O-])c2)n1 40.1%
Cc1cc(OCC(=O)NCC2(N3CCOCC3)CCCCC2)ccc1Cl -26.3%
CCc1cccc(NC(=O)C(CC(C)C)NS(=O)(=O)c2ccc3c(c2)oc(=O)n3C)c1 (centres undefined) -34.4%
CCC(=O)N1CCc2cc(CNC(=O)Nc3cc(Cl)ccc3C(=O)OC)ccc21 -26.2%
COc1ccccc1CN1CCC(CNC(=O)c2cnn(-c3ccc(C)c(C)c3)c2C2CCN(C(=O)OC(C)(C)C)CC2)CC1 -20.3%
Brc1ccc2nc(-c3ccccc3)c(Nc3ccc4c(c3)OCO4)n2c1 1.43%
